The text below walks through data of the RNAGym collection of RNA variant scans (doi:10.7554/elife.90254).

The source gives no read counts; variants with many changes may rest on few reads.

B1: LINE1-mini (parent)
chain: GGCAGAGCUCAACACAGCGUGGCAAAGUGGCUGUGGCUAGACUGCC

This data set covers variants of B1. The experiment in a line: self-cleavage, relative activity (ratio to wild type); higher = more cleavage; in vitro, sequencing; the parent is a self-cleaving ribozyme.
Regarding GGCAGAGAUCAACACAGCGUGGCAAACUGACUGUGGCUAGACUGCC [C8A G27C G30A], the self-cleavage was determined as 0.31.
Next, GGCAGAGAUCAACACAGCGUGGCAAAGUGUAUGUGGCCAGACUGCC [C8A G30U C31A U38C]: 0.32; GGCAGAGAUCAACACAGCGUGGCAAAGUGACUCUGGCUAGGCUGCC [C8A G30A G33C A41G]: 0.26; GGCAGAGAUCAACACAGCGUGGCAAAGUAGCUGUGGCUCGACUGCC [C8A G29A A39C]: 0.02.
GGCAGAGAUCAACACAGCGUGGCAAAGUGGCUGUAGAUAGACUGCC [C8A G35A C37A]: the self-cleavage came out at 0.12.
Next, GGCAGAGGUCCACACCGCGUGGCAAACUGGAUGUGGCUAGACUGCC [C8G A11C A16C G27C C31A]: 0; GGCAGAGAUCAACACAGCGUGGCAAAGUGUCCGUGCCUCGACUGCC [C8A G30U U32C G36C A39C]: 0.07.
As for GGCAGAGAGCAACAUAGCUUGGCAAAGUGGCUGUGGCUAGACUGCC [C8A U9G C15U G19U], the self-cleavage came to 0.06.
Consider GGCAGAGAUCAACACAGCGUGGUAAAGUGGCUGUGGCUAAAAUGCC [C8A C23U G40A C42A], for which the self-cleavage was 0.07.
Consider GGCAGAGGUCCCCACAGAGUGGCAAAGUGGCUGUGGCUACUCUACC [C8G A11C A12C C18A G40C A41U G44A], for which the self-cleavage amounted to 0.01.
Next, GGCAGAGAUCAACACAGGGUGUCAAAGUGGCUGUGGCUAGACUGAC [C8A C18G G22U C45A]: 0.03; GGCAGAGAUCAACACACCGUGGCAAUGUUGCUGUGUCUAGACUGCC [C8A G17C A26U G29U G36U]: 0.25.
Regarding GGCAGAGGUCAACGCAACGUGGCAAAGUGGCUGUGGCUAGACUGAC [C8G A14G G17A C45A], the self-cleavage is 0.02.
Regarding GGCAGAGAUCAACACAGCGUUGCAAAGUAGCUGUGCCUAGACUGCC [C8A G21U G29A G36C], the self-cleavage came to 0.16.
Consider GGCAGAGAUCAACACAUCGUGGCAAAGUCGCUGUGGCUGGACUGCC [C8A G17U G29C A39G], for which the self-cleavage worked out at 0.02.
As to GGCAGAGAUCAACACAGCGUGGGAAAGUGGUUAGGGUUAGACUGCC [C8A C23G C31U G33A U34G C37U], the self-cleavage was determined as 0.11.
Turning to GGCAGAGAUCAACACAGCGUGGCAAAGUAGCUGUGGCUAGACUACC [C8A G29A G44A], the self-cleavage was 0.25.
For the variant GGCAGAGAUCAACACAGCGUGGCAAAGUGGCUGUGGUUAGCCUGCC [C8A C37U A41C], the self-cleavage was 0.07.
As to GGCAGAGAUCAACACAGCGCGGCAAAUUGGCUGUGGCUAGACUGCC [C8A U20C G27U], the self-cleavage stood at 0.11.
As for GGCAGAGAUCAACACAGGGUGUCAAACUUGCUGUGGCUAGACUGCC [C8A C18G G22U G27C G29U], the figure is 0.1; as for GGCAGAGAUCAACACAGCGUGGUAAAGUGGCUGUGGCUACACUGCC [C8A C23U G40C], 0.29.
Take GGCAGAGAUCAACACAGCGUGGCAAAUUGGCCGUGGUUAGACUGCC [C8A G27U U32C C37U]: the self-cleavage was determined as 0.01.
For the variant GGCAGAGGUCACGUCAGCGUGGCAAAGUGGCUGUGGCUAGACUGCC [C8G A12C C13G A14U], the self-cleavage turned out to be 0.03.
For GGCAGAGGUCGACACAGCGUGGCAAAGUGGCUGUGGCUAGGCUGCC [C8G A11G A41G], the self-cleavage was determined as 0.01.
Turning to GGCAGAGAUCAACACAGCGUGGUAAAGUGGCUGUGGCUAGACUGGC [C8A C23U C45G], the self-cleavage worked out at 0.06.
For the variant GGCAGAGAUCAACACAGCGUGGCAAAGUGGCUGUGGCUAGAUUUCC [C8A C42U G44U], the self-cleavage amounted to 0.02.
GGCAGAGAUCAACACAGCGUGGCAAACUGGCUGUGGCUAGGCUGCC [C8A G27C A41G]: the self-cleavage worked out at 0.02.
GGCAGAGGUCCACACAGAGUGGCCAAGUGGUUGUGGCUAGACUGCC [C8G A11C C18A A24C C31U]: the self-cleavage worked out at 0.01.
Turning to GGCAGAGGUCAUCACAGCUUGGCAAAGUGGCUGUGGCUAGACUGCC [C8G A12U G19U], the self-cleavage is 0.1.
Take GGCAGAGAUCAACACAGCGUGGCAAAGUGCCUGAGGCUAGACUGCC [C8A G30C U34A]: the self-cleavage came out at 0.06.
Next, GGCAGAGAUCAACACAGCGUGGAAAAGUGGCUGUGGCAAGACUGCC [C8A C23A U38A]: 0.1; GGCAGAGAUCAACACAGUGUGGCAAAGUGGUUGUGGCUAGACUGCC [C8A C18U C31U]: 0.06.
Regarding GGCAGAGACCAACACAGCGUGGCAAAGUGGCUGUGGCUCGACCCCC [C8A U9C A39C U43C G44C], the self-cleavage is 0.01.
For the variant GGCAGAGGUCCACACAGCAUGGAAAAGUGGCUGUCGCUAGAUUGCC [C8G A11C G19A C23A G35C C42U], the self-cleavage stood at 0.02.
As for GGCAGAGAUCAACACAGCGUGACGUAUUGGCUGUGGCUAGACUGCC [C8A G22A A24G A25U G27U], the figure is 0.13; as for GGCAGAGAUCAACACAGCGUGUCAAAGUGGCUGUGGCAAGACUGCC [C8A G22U U38A], 0.09.
As for GGCAGAGAUCAACACAACCUGGCAAAGUGGCUGUGGUUAUACUGCC [C8A G17A G19C C37U G40U], the figure is 0.09; as for GGCAGAGAUCAACACAGCGUGGAAAAGUGGCUGUGGAUAGACAGCC [C8A C23A C37A U43A], 0.16.
Consider GGCAGAGAUCAACACAGCGUGGCAAAGCGGCUGUGGCUAGACUGAC [C8A U28C C45A], for which the self-cleavage amounted to 0.12.
As for GGCAGAGAUCAACACAGGGGGGCAAAGUGGCUGUGGCUAGACUGCC [C8A C18G U20G], the figure is 0.1; as for GGCAGAGAACAACGCAGCGUGGCAAAGUGCCUGUGGCUAAACUGCC [C8A U9A A14G G30C G40A], 0.1.
As to GGCAGAGAUCAACACAGCGUGGCAAAGUGGCUGUGGCUAGAAUGCU [C8A C42A C46U], the self-cleavage was 0.09.
As to GGCAGAGAUCAACACAGCGUAGCAAAGUGGCUUUGGCUACACUGCC [C8A G21A G33U G40C], the self-cleavage stood at 0.22.
In the case of GGCAGAGAUCAACACAGCGUGGCAAAGUGGCUGUGGCUACACUACC [C8A G40C G44A], the self-cleavage amounted to 0.2.
Turning to GGCAGAGGUCAUGACAGCAUCGCAAAGUGAAUGUGGCUAGCCUGCC [C8G A12U C13G G19A G21C G30A C31A A41C], the self-cleavage came out at 0.01.
Regarding GGCAGAGGUCGAGACAGCGUGGCAAAGUGGCUGUGUAUAGACUGCC [C8G A11G C13G G36U C37A], the self-cleavage was found to be 0.01.
GGCAGAGAUCAACACAGCGUUGCCAAGUGGCUGUGGCUAGACUGCA [C8A G21U A24C C46A]: the self-cleavage was 0.11.
Take GGCAGAGGUCGACACAUAGUGGCAAAGUGGCUGUGGCUAGACUGCC [C8G A11G G17U C18A]: the self-cleavage was 0.01.
For the variant GGCAGAGAUCAACACAGCGUGACAAAGAGGCUGUGGCUAGACUGCG [C8A G22A U28A C46G], the self-cleavage came out at 0.23.
As for GGCAGAGAUCAACACAAGGUGGCAAAGUGGCUGUGGCUAGUCUGCC [C8A G17A C18G A41U], the self-cleavage was 0.14.
Turning to GGCAGAGAUCAACACAGCGUGGCAAAGUGGCUAUGGAUAGACUGCC [C8A G33A C37A], the self-cleavage was determined as 0.04.
For the variant GGCAGAGAUCAACACAGCGUGGCAAAGUAGCUGUGGCUAGAGUGCC [C8A G29A C42G], the self-cleavage is 1.79.
As for GGCAGAGAUCAACACAGUGUGGCAAAGUGACUGUGGCUAGACUGCC [C8A C18U G30A], the figure is 0.1; as for GGCAGAGAUCAACACAGCGUGGCAAAGUGGCUGAGACUAGACUGCC [C8A U34A G36A], 0.08.
Turning to GGCAGAGACCAAGACAGCGUGGCAAACUGGCUGUGGCUAGACUGCC [C8A U9C C13G G27C], the self-cleavage was 0.09.
As for GGCAGAGAUCAACACAUUGUGGCAAAGUGGCUGUGGCUAGUGUGCC [C8A G17U C18U A41U C42G], the figure is 0.1.
